{"source": "patent US12286661B2", "about": "“Methods for making high intensity sweeteners” (Firmenich Incorporated, priority 2018, dated 2025)", "molecules": {"B1": {"name": "SEQ ID NO 964: fusion protein having cucurbitadienol synthase activity (protein)", "chain": "MWRLKVGKESVGEKEEKWIKSISNHLGRQVWEFCSGENENDDDEAIAVANNSASKFENARNHFRNNRFHRKQSSDLFLAIQCEKEIIRNGAKNEGTTKVKEGEDVKKEAVKNTLERALSFYSAVQTSDGNWASDLGGPMFLLPGLVIALYVTGVLNSVLSKHHRQEMCRYIYNHQNEDGGWGLHIEGSSTMFGSALNYVALRLLGEAADGGEHGAMTKARSWILERGGATAITSWGKLWLSVLGVYEWSGNNPLPPEFWLLPYSLPFHPGRMWCHCRMVYLPMSYLYGKRFVGPITPIVLSLRKELYTIPYHEIDWNRSRNTCAKEDLYYPHPKMQDILWGSIYHVYEPLFSGWPGKRLREKAMKIAMEHIHYEDENSRYICLGPVNKVLNMLCCWVEDPYSDAFKFHLQRIPDYLWLAEDGMRMQGYNGSQLWDTAFSIQAIISTKLIDTFGPTLRKAHHFVKHSQIQEDCPGDPNVWFRHIHKGAWPFSTRDHGWLISDCTAEGLKASLMLSKLPSKIVGEPLEKNRLCDAVNVLLSLQNENGGFASYELTRSYPWLELINPAETFGDIVIDYSYVECTSATMEALALFKKLHPGHRTKEIDAAIAKAANFLENMQKTDGSWYGCWGVCFTYAGWFGIKGLVAAGRTYNNCVAIRKACNFLLSKELPGGGWGESYLSCQNKVYTNLEGNKPHLVNTAWVMMALIEAGQGERDPAPLHRAARLLINSQLESGDFPQQEIMGVFNKNCMITYAAYRNIFPIWALGEYSHRVLDMGSAAPGSGSGSGMIKHIVSPFRTNFVGISKSVLSRMIHHKVTIIGSGPAAHTAAIYLARAEMKPTLYEGMMANGIAAGGQLTTTTDIENFPGFPESLSGSELMERMRKQSAKFGTNIIIETVSKVDLSSKPFRLWTEFNEDAEPVTTDAIILATGASAKRMHLPGEETYWQQGISACAVCDGAVPIFRNKPLAVIGGGDSACEEAEFLTKYASKVYILVRKDHFRASVIMQRRIEKNPNIIVLFNTVALEAKGDGKLLNMLRIKNTKSNVENDLEVNGLFYAIGHSPATDIVKGQVDEEETGYIKTVPGSSLTSVPGFFAAGDVQDSRYRQAVTSAGSGCIAALDAERYLSAQE", "modifications": "SS4b-B8b Full Gene AA seq"}, "B2": {"name": "SEQ ID NO 967: fusion protein having cucurbitadienol synthase activity (protein)", "chain": "MWRLKVGKESVGEKEEKWIKSISNHLGRQVWEFCSGENENDDDEAIAVANNSASKFENARNHFRNNRFHRKQSSDLFLAIQCEKEIIRNGAKNEGTTKVKEGEDVKKEAVKNTLERALSFYSAVQTSDGNWASDLGGPMFLLPGLVIALYVTGVLNSVLSKHHRQEMCRYIYNHQNEDGGWGLHIEGSSTMFGSALNYVALRLLGEAADGGEHGAMTKARSWILERGGATAITSWGKLWLSVLGVYEWSGNNPLPPEFWLLPYSLPFHPGRMWCHCRMVYLPMSYLYGKRFVGPITPIVLSLRKELYTIPYHEIDWNRSRNTCAKEDLYYPHPKMQDILWGSIYHVYEPLFSGWPGKRLREKAMKIAMEHIHYEDENSRYICLGPVNKVLNMLCCWVEDPYSDAFKFHLQRIPDYLWLAEDGMRMQGYNGSQLWDTAFSIQAIISTKLIDTFGPTLRKAHHFVKHSQIQEDCPGDPNVWFRHIHKGAWPFSTRDHGWLISDCTAEGLKASLMLSKLPSKIVGEPLEKNRLCDAVNVLLSLQNENGGFASYELTRSYPWLELINPAETFGDIVIDYSYVECTSATMEALALFKKLHPGHRTKEIDAAIAKAANFLENMQKTDGSWYGCWGVCFTYAGWFGIKGLVAAGRTYNNCVAIRKACNFLLSKELPGGGWGESYLSCQNKVYTNLEGNKPHLVNTAWVMMALIEAGQGERDPAPLHRAARLLINSQLESGDFPQQEIMGVFNKNCMITYAAYRNIFPIWALGEYSHRVLDMGSAAPGSGSGSGMAVQNHILPLTRVM", "modifications": "SS4b-D4 Full Gene AA seq"}, "B3": {"name": "SEQ ID NO 971: fusion protein having cucurbitadienol synthase activity (protein)", "chain": "MWRLKVGKESVGEKEEKWIKSISNHLGRQVWEFCSGENENDDDEAIAVANNSASKFENARNHFRNNRFHRKQSSDLFLAIQCEKEIIRNGAKNEGTTKVKEGEDVKKEAVKNTLERALSFYSAVQTSDGNWASDLGGPMFLLPGLVIALYVTGVLNSVLSKHHRQEMCRYIYNHQNEDGGWGLHIEGSSTMFGSALNYVALRLLGEAADGGEHGAMTKARSWILERGGATAITSWGKLWLSVLGVYEWSGNNPLPPEFWLLPYSLPFHPGRMWCHCRMVYLPMSYLYGKRFVGPITPIVLSLRKELYTIPYHEIDWNRSRNTCAKEDLYYPHPKMQDILWGSIYHVYEPLFSGWPGKRLREKAMKIAMEHIHYEDENSRYICLGPVNKVLNMLCCWVEDPYSDAFKFHLQRIPDYLWLAEDGMRMQGYNGSQLWDTAFSIQAIISTKLIDTFGPTLRKAHHFVKHSQIQEDCPGDPNVWFRHIHKGAWPFSTRDHGWLISDCTAEGLKASLMLSKLPSKIVGEPLEKNRLCDAVNVLLSLQNENGGFASYELTRSYPWLELINPAETFGDIVIDYSYVECTSATMEALALFKKLHPGHRTKEIDAAIAKAANFLENMQKTDGSWYGCWGVCFTYAGWFGIKGLVAAGRTYNNCVAIRKACNFLLSKELPGGGWGESYLSCQNKVYTNLEGNKPHLVNTAWVMMALIEAGQGERDPAPLHRAARLLINSQLESGDFPQQEIMGVFNKNCMITYAAYRNIFPIWALGEYSHRVLDMGSAAPGSGSGSGMSASTHSPEPCL", "modifications": "SS4c-C4a Full Gene AA seq"}, "B4": {"name": "SEQ ID NO 975: fusion protein having cucurbitadienol synthase activity (protein)", "chain": "MWRLKVGKESVGEKEEKWIKSISNHLGRQVWEFCSGENENDDDEAIAVANNSASKFENARNHFRNNRFHRKQSSDLFLAIQCEKEIIRNGAKNEGTTKVKEGEDVKKEAVKNTLERALSFYSAVQTSDGNWASDLGGPMFLLPGLVIALYVTGVLNSVLSKHHRQEMCRYIYNHQNEDGGWGLHIEGSSTMFGSALNYVALRLLGEAADGGEHGAMTKARSWILERGGATAITSWGKLWLSVLGVYEWSGNNPLPPEFWLLPYSLPFHPGRMWCHCRMVYLPMSYLYGKRFVGPITPIVLSLRKELYTIPYHEIDWNRSRNTCAKEDLYYPHPKMQDILWGSIYHVYEPLFSGWPGKRLREKAMKIAMEHIHYEDENSRYICLGPVNKVLNMLCCWVEDPYSDAFKFHLQRIPDYLWLAEDGMRMQGYNGSQLWDTAFSIQAIISTKLIDTFGPTLRKAHHFVKHSQIQEDCPGDPNVWFRHIHKGAWPFSTRDHGWLISDCTAEGLKASLMLSKLPSKIVGEPLEKNRLCDAVNVLLSLQNENGGFASYELTRSYPWLELINPAETFGDIVIDYSYVECTSATMEALALFKKLHPGHRTKEIDAAIAKAANFLENMQKTDGSWYGCWGVCFTYAGWFGIKGLVAAGRTYNNCVAIRKACNFLLSKELPGGGWGESYLSCQNKVYTNLEGNKPHLVNTAWVMMALIEAGQGERDPAPLHRAARLLINSQLESGDFPQQEIMGVFNKNCMITYAAYRNIFPIWALGEYSHRVLDMGSAAPGSGSGSGMGTSIVNLNQKIELPPIQVLFESLNRENETKPHFEERRLYQPNPSFVPRTNIAVGSPVNPVPVSSPVFFIGPSPQRSIQNHNAIMTQNIRQYPVIYNNNREVISTGERNYIITVGGPPVTSSQPEYEHISTPNFYQEQRLAQPHPVNESMMIGGYTNPQPISISRGKMLSGNISTNSVRGSNNGYSAKEKKHKAHGKRSNLPKATVSILNKWLHEHVNNPYPTVQEKRELLAKTGLTKLQISNWFINARRRKIFSGQNDANNFRRKFSSSTNLAKF", "modifications": "SS4c-C4b Full Gene AA seq"}, "B5": {"name": "SEQ ID NO 979: fusion protein having cucurbitadienol synthase activity (protein)", "chain": "MWRLKVGKESVGEKEEKWIKSISNHLGRQVWEFCSGENENDDDEAIAVANNSASKFENARNHFRNNRFHRKQSSDLFLAIQCEKEIIRNGAKNEGTTKVKEGEDVKKEAVKNTLERALSFYSAVQTSDGNWASDLGGPMFLLPGLVIALYVTGVLNSVLSKHHRQEMCRYIYNHQNEDGGWGLHIEGSSTMFGSALNYVALRLLGEAADGGEHGAMTKARSWILERGGATAITSWGKLWLSVLGVYEWSGNNPLPPEFWLLPYSLPFHPGRMWCHCRMVYLPMSYLYGKRFVGPITPIVLSLRKELYTIPYHEIDWNRSRNTCAKEDLYYPHPKMQDILWGSIYHVYEPLFSGWPGKRLREKAMKIAMEHIHYEDENSRYICLGPVNKVLNMLCCWVEDPYSDAFKFHLQRIPDYLWLAEDGMRMQGYNGSQLWDTAFSIQAIISTKLIDTFGPTLRKAHHFVKHSQIQEDCPGDPNVWFRHIHKGAWPFSTRDHGWLISDCTAEGLKASLMLSKLPSKIVGEPLEKNRLCDAVNVLLSLQNENGGFASYELTRSYPWLELINPAETFGDIVIDYSYVECTSATMEALALFKKLHPGHRTKEIDAAIAKAANFLENMQKTDGSWYGCWGVCFTYAGWFGIKGLVAAGRTYNNCVAIRKACNFLLSKELPGGGWGESYLSCQNKVYTNLEGNKPHLVNTAWVMMALIEAGQGERDPAPLHRAARLLINSQLESGDFPQQEIMGVFNKNCMITYAAYRNIFPIWALGEYSHRVLDMGSAAPGSGSGSGMDQPRTIV", "modifications": "SS4e-B2 Full Gene AA seq"}}, "system": "cucurbitadienol synthase activity", "test": "Cucurbitadienol synthase activities of fusion proteins in yeast strain with oxidosqualene boost, LCMS", "format": "cell-based, S. cerevisiae", "details": "average % activities over the average activities of the parent enzyme (Cucumis melo cucurbitadienol synthase)", "procedure": "For analyzing cucurbitadienol, the first LCMS method included the use of C4 2.1×100 mm column, gradient 1 to 95% B for 6 minutes, and at flow rate of 0.55 ml/min; and the second LCMS method included the use of Waters Acquity UPLC Protein BEH C4 2.1×100 […], 1.7 μm, with guard, 62 to 67% B for 2 min, 100% B for 1 min, and at flow rate of 0.9 ml/min and ESI source positive single ion monitoring of 427 and 409.\nThe gene encoding for a cucurbitadienol synthase form Cucumis melo was codon optimized (SEQ ID: 907) and used as a starting point for generating a library of modifications. Modifications were introduced through standard molecular biology techniques consisting of fusion peptides at the N-terminus (i.e., 5′) or C-terminus (i.e., 3′) end of the enzyme. Plasmids libraries of modified cucurbitadienol synthase genes were transformed into a yeast strain with oxidosqualene boost. Enzyme activities were measured by ratios of peak heights or areas of 409 and 427 positive mass fragments at the expected retention times for cucurbitadienol vs. an internal standard using LCMS method 2 described above. Enzyme performance were scored as average % activities over the average activities of the parent enzyme (n=8). Step 1 sequences of the enzymes and the sequences that encode the enzyme can be found in SEQ ID NOs: 951-1012. Step 1 sequence also include the fusions SS2c-G10, SS2e-A7b, SS2d-G11. SS2e-A7a, SS4d-G5, SS4d-C7, SS3b-D8, and SS2c-A10a are disclosed herein.\nA collection or library of S. cerevisiae in-frame fusion polynucleotdies for a cucurbitadienol synthase gene (DNA coding sequence provided in SEQ ID NO: 907, and protein sequence provided in SEQ ID NO: 902) was prepared. The in-frame fusion polynucleotides were cloned into a yeast vector molecule to generate fusion proteins.\nVarious fusion proteins were generated and tested for cucurbitadienol synthase activities."}
{"molecule": "B1", "values": [{"measurement": "Activity (as compared to the parent)", "value": 74, "unit": "%"}]}
{"molecule": "B2", "values": [{"measurement": "Activity (as compared to the parent)", "value": 72, "unit": "%"}]}
{"molecule": "B3", "values": [{"measurement": "Activity (as compared to the parent)", "value": 89, "unit": "%"}]}
{"molecule": "B4", "values": [{"measurement": "Activity (as compared to the parent)", "value": 35, "unit": "%"}]}
{"molecule": "B5", "values": [{"measurement": "Activity (as compared to the parent)", "value": 96, "unit": "%"}]}
